# Data as given in the supplement of paper PMC3334620.
# The full ranking holds about 33,000 sequences; the median of “E-score (-0.5 to 0.5)” is about -0.035, and the highest 2% start at about 0.34. The list shows a part of the results.
# Biological target: T1, Mot3 (UniProt P54785)
# T1 sequence: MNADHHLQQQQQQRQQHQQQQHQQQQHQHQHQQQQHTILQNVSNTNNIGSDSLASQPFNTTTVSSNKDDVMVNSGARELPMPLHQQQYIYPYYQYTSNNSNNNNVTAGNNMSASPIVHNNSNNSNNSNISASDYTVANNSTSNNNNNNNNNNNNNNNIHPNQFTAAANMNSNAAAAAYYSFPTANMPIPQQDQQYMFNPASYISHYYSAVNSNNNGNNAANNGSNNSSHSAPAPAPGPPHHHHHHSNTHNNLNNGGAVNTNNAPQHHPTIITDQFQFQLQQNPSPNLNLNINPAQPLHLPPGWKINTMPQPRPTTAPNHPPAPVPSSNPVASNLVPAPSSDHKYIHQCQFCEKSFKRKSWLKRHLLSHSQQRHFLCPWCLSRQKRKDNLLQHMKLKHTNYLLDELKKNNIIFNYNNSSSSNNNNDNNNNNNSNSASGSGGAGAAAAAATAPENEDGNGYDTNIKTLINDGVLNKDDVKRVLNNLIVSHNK
# Experiment: PBM E-score (8-mer binding enrichment) (E-score (-0.5 to 0.5)); higher = stronger / more preferred TF binding; most listed sequences are background and not binding sites
# Settings: protein concentration: 200 nM; construct: GST-full length
# In short: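 Yeast transcription factors carrying a GST tag, as full-length proteins or DNA-binding domains, were produced by PURExpress in vitro transcription/translation. About 100-200 nM protein was applied to universal all-10-mer Agilent arrays, double-stranded by primer extension on fresh or once-stripped slides. Bound protein was detected with fluorescent anti-GST, and scans were normalised with masliner. The Universal PBM Analysis Suite gave each ungapped eight-base word, pooled with its reverse complement, an E-score, a modified Wilcoxon-Mann-Whitney statistic.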
row,Sequence,PBM E-score
1,CTGATAGC,-0.288
2,CATTCCGA,0.0255
3,AAACAAAC,0.0919
4,AAGATCTG,0.027
5,CTCCCAAA,-0.097
6,AAAATGGT,0.123
7,CGCATCAA,-0.122
8,ATATTTCA,0.0496
9,AACAAGGG,0.183
10,ATTGACCC,-0.117
11,ACGGCGCT,-0.105
12,ACTTAAGG,0.157
13,ATAGGTGG,0.0389
14,ACTCAACG,0.0348
15,CCTGCAGC,0.0434
16,CCGTTACA,0.236
17,GCCGCATA,-0.215
18,TATCCATA,-0.00087
19,ACTTTTGG,-0.00521
20,AAACCGTG,0.0679
21,TGCCAACA,0.137
22,TATCGGGA,0.0521
23,AAATAGAT,0.115
24,AGTTAGTG,-0.00141
25,CACGTCCC,-0.0972

row,Sequence,PBM E-score
1,AGGTTGAA,-0.0784
2,AAGAGCTG,-0.2
3,AAATACCG,-0.0476
4,ATGTCCTA,-0.0455
5,ACATCCCT,0.148
6,TGTAGGAA,0.406
7,CCTGTTTC,0.188
8,CCGAAATA,-0.0276
9,ATTGAAAG,-0.023
10,AGCAGTCA,0.0249
11,AGGCCCAA,0.0324
12,TTATAGAA,0.153
13,CGCCACAG,-0.0196
14,GCGAAACA,-0.0302
15,ACCATTGC,-0.0229
16,CGAGTTAC,0.123
17,GCCGGTCA,-0.221
18,GGTGTTAA,0.28
19,ATCATGCA,0.0669
20,AGAGGTTC,0.0145
21,CTCAATTC,-0.0836
22,CTCACGAG,-0.266
23,ACGATCGT,0.179
24,AGAACCAC,-0.122
25,GTGTGTAA,0.394

row,Sequence,PBM E-score
1,AAGGCCAT,-0.0727
2,CTGCGCAC,-0.104
3,CCTCTTGA,-0.0841
4,GGCCTGTA,0.148
5,GTGGGGAA,0.0416
6,ACTACATC,0.173
7,CTCGTCAC,-0.00506
8,TATCAAAA,0.0905
9,GATCACAA,-0.122
10,ATATACAA,0.264
11,GCCCGAGA,-0.131
12,CCAAGCAC,-0.0442
13,GAAACGGC,-0.0229
14,CAACTTTA,0.212
15,CCGAATAC,0.0773
16,AAATAATG,0.176
17,GGACGAAC,0.0273
18,ATATGGTA,0.0654
19,AACGTAGT,0.101
20,CACATTGA,0.0498
21,GTAAGATA,0.0659
22,ACCCTGGC,-0.174
23,CGTTGTAA,0.333
24,GCTAAGCA,-0.148
25,AAAGGTTA,0.132

row,Sequence,PBM E-score
1,ACCGCCGC,0.107
2,ATTAGCAA,0.1
3,GGTGATAC,-0.11
4,AAAAGCAG,-0.102
5,ACCGCGTC,0.0492
6,TATCGTAA,0.171
7,CAGCTTGG,-0.214
8,ACGGGTAA,0.0622
9,GCGAAACC,-0.00806
10,CACCGCAC,-0.225
11,GCATGGCA,-0.113
12,CCGAGAGC,-0.17
13,AAAGGAAC,0.456
14,TCTATAGA,-0.152
15,GCGCCCAA,-0.167
16,CTAACCTC,-0.0869
17,AGGCCCAT,-0.219
18,GAGGCCCC,-0.242
19,CCCAAGCC,-0.261
20,CAGCCACA,-0.11
21,AATCGATT,0.265
22,CTGGCACC,-0.232
23,CTGCGTAC,0.155
24,CATGAACG,0.00316
25,AGTCTCAC,-0.162

row,Sequence,PBM E-score
1,GGGGGCGA,-0.315
2,CACAGCAG,-0.0438
3,ACGGGAGC,-0.091
4,ACACGTGC,0.326
5,ATAAGGAC,-0.06
6,CAACGGTA,-0.136
7,AATACGTA,0.239
8,ATTATCAC,0.147
9,TATCTTAA,0.153
10,TAGGTCCA,-0.0377
11,CCAGATGA,-0.0722
12,CCTCGGTC,-0.129
13,CATTAGAG,-0.263
14,CTTAGAAC,0.164
15,AGACTCAA,-0.162
16,CTAAAACA,0.283
17,AATGAATG,0.114
18,TACACTCA,0.21
19,GGGGCGGA,-0.374
20,ATGTCGAA,0.298
21,CATCCGGA,-0.257
22,ACCCACCA,-0.0196
23,ATTCCCGA,-0.113
24,ACGTTTAC,0.214
25,CATACACA,0.219

row,Sequence,PBM E-score
1,AATTAAAA,0.172
2,CGAATGGA,0.00359
3,TGTTTTAA,0.257
4,CGATATGC,-0.142
5,CATTACAC,0.384
6,GGTTCTAA,-0.0493
7,CAGTTTGG,-0.122
8,GCGTGAGC,-0.0991
9,GTCCACCA,-0.141
10,CCTCTTTC,-0.324
11,GCTCGTGA,-0.265
12,ACCACGAT,0.127
13,CTCTAGTA,0.0832
14,AATTCTTC,-0.0362
15,AGTAGTCC,-0.106
16,CATTCTGG,-0.0991
17,CTGAAGGA,-0.0822
18,AAGTGGCG,-0.0307
19,CTCTAACA,0.0488
20,CGTGGTAA,0.155
21,ATGTTTCG,0.0343
22,ATTTGTGC,0.191
23,CCACCTGG,-0.0941
24,CCCTTGAA,-0.223
25,ATCCACCG,-0.206

row,Sequence,PBM E-score
1,ACCGCTAT,-0.159
2,TAAGGAGA,-0.0944
3,GCCGGGCA,-0.206
4,AGAGATAG,-0.0788
5,ATACTTGA,0.145
6,GCCAGCGC,-0.236
7,AACCCCTA,-0.042
8,TCTAAGAA,0.00589
9,ACAATTAC,0.296
10,AGACCGCG,0.113
11,ACTCGTAG,0.039
12,CAGACTGC,-0.158
13,GTGAATGA,-0.0845
14,AAGGTACG,0.436
15,ACTTTGGG,-0.119
16,GCAATGCA,-0.0836
17,AGAGCCTG,0.341
18,AGTCAGAC,-0.176
19,GAAAATGC,0.0221
20,CCTATCAG,0.0767
21,AGCCGATC,-0.0373
22,CAGATACC,-0.188
